The values below come from the supplement of paper PMC10126150.

Sequences with one replicate were seen in a single cluster, so their values are uncertain.

The test system of this series is ATP. Nature of the series: switch fluorescence ratio, 500 uM ATP over buffer (Cy3 cluster intensity, sum of 5 cycles each) (fold (ratio)); higher = stronger signal-on switching upon ATP binding; sequences stand for … in TCGTCGGCAGCGTCAGATGTGTATAAGAGACAGTTTTTTTTTTTTTTTTTTTTTTTTT…TC. The conditions noted are these: aptamer strand: ATP DNA aptamer (quencher-CACCTGGGGGAGTATTGCGGAGGAAGG + anchor), 100 nM annealed; ATP concentration: 500 uM; one replicate. The method, boiled down: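 Cy3-labelled switching-strand clusters on a modified Illumina MiSeq flow-cell were annealed to 100 nM quencher-labelled ATP aptamer, imaged in selection buffer, then imaged after 15 min with 500 uM ATP at 22 °C. Five buffer/ATP cycles ran, with NaOH stripping and re-annealing between them. The fluorescence ratio is summed target-cycle over summed buffer-cycle Cy3 intensity per cluster, averaged per switch-domain sequence. Clusters outside 100-1000 RFU were excluded.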
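Note: ATP exposure 15 min at 22 °C before imaging.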

In the case of GTCAAAATGT, the switch fluorescence ratio came out at 1.01.

Consider TTGGTTAAAC, for which the switch fluorescence ratio was 0.971.

In the case of TAGAAAGCG, the switch fluorescence ratio was determined as 1.02.

Turning to AACTGAAATA, the switch fluorescence ratio worked out at 0.992.

With GGCTGAAAGG, the switch fluorescence ratio worked out at 0.981.

Consider GGTCTCATTT, for which the switch fluorescence ratio is 1.01.

Regarding ATAGCTTTCA, the switch fluorescence ratio was found to be 0.972.

With CCGTATTATG, the switch fluorescence ratio amounted to 1.

On to CGCGCTGGAA, for which the switch fluorescence ratio was determined as 0.999.

Turning to GACGCGACGG, the switch fluorescence ratio turned out to be 1.07.

With ATAGTGCTGG, the switch fluorescence ratio is 1.01.

For TAAATGAGTC, the switch fluorescence ratio was 0.991.

In the case of GTCCCACCTA, the switch fluorescence ratio stood at 1.01.

With TTATGTACCG, the switch fluorescence ratio stood at 1.01.

ACCTTCAGAC: the switch fluorescence ratio is 2.56.

On to TAAACTAGTG, for which the switch fluorescence ratio amounted to 1.05.

For TAGTTTCTTT, the switch fluorescence ratio stood at 0.972.

TAAACGCTC: the switch fluorescence ratio was 1.03.

Turning to AAAGTGCGCC, the switch fluorescence ratio is 0.989.

With TTAGGCGAAG, the switch fluorescence ratio was determined as 1.03.

In the case of GAAACCTCCA, the switch fluorescence ratio worked out at 1.51.

With TCCTAGAAGC, the switch fluorescence ratio is 1.06.

Take TCCGGTTGCT: the switch fluorescence ratio was 1.18.

Consider TCGCCCCGG, for which the switch fluorescence ratio was determined as 1.16.

TAAAGATATA: the switch fluorescence ratio amounted to 1.

Turning to AAGATTTGCG, the switch fluorescence ratio was found to be 0.962.

With TGTATAAGGG, the switch fluorescence ratio is 0.999.

For GTTGTTTCGG, the switch fluorescence ratio was 0.981.

With ACCGAGCGCT, the switch fluorescence ratio came to 1.06.

Regarding TAACTAGGCC, the switch fluorescence ratio was found to be 1.02.

For the sequence CGCAATCTAG, the switch fluorescence ratio came to 5.11.

For GGTTTGTTCG, the switch fluorescence ratio turned out to be 1.02.

With ATGTGATACT, the switch fluorescence ratio turned out to be 1.07.

Take ACCAGATGT: the switch fluorescence ratio was 1.08.

As for TCAGATCGT, the switch fluorescence ratio is 0.93.

As for GCAGACAGTG, the switch fluorescence ratio was found to be 1.

GCCACCAAAG: the switch fluorescence ratio was determined as 0.986.

GCTGAATAT: the switch fluorescence ratio is 1.01.

As for GAGATGAGGG, the switch fluorescence ratio is 0.984.

Take AGGGCCGCGA: the switch fluorescence ratio is 1.54.

As to CCGAACCCGA, the switch fluorescence ratio was 1.55.

ACTGGTAGCG: the switch fluorescence ratio was found to be 1.04.

ACTCGGGTGC: the switch fluorescence ratio was found to be 1.44.

For GGCAATTTCT, the switch fluorescence ratio worked out at 1.1.

Regarding CGCCGGCCTA, the switch fluorescence ratio was found to be 1.02.

Regarding ATATGCCACG, the switch fluorescence ratio worked out at 1.01.

As to CCATTGTCTC, the switch fluorescence ratio is 1.08.

Regarding ATGCATAAGT, the switch fluorescence ratio amounted to 1.01.

Consider ACCGGAAGGA, for which the switch fluorescence ratio turned out to be 0.948.

Take TGGGCCAACT: the switch fluorescence ratio was determined as 0.973.

As for GGAAGAATGC, the switch fluorescence ratio was found to be 1.05.

Take CATTAATTTA: the switch fluorescence ratio was 1.02.

Consider CACGCGTGAA, for which the switch fluorescence ratio worked out at 1.01.

As for CTTACGGGAC, the switch fluorescence ratio was 1.15.

Take TATTATTCTC: the switch fluorescence ratio amounted to 1.03.

Take CATGTCCCTT: the switch fluorescence ratio was determined as 0.982.

In the case of TGGTAACGGA, the switch fluorescence ratio amounted to 0.961.

As for AAGTTCACCG, the switch fluorescence ratio is 1.02.

As to GCTGTGTTTC, the switch fluorescence ratio was 1.04.

Regarding TACTGGTAAC, the switch fluorescence ratio worked out at 1.04.

Regarding ATTAACGCGG, the switch fluorescence ratio was 1.

For GCAATCACTA, the switch fluorescence ratio was found to be 1.38.

GAAATCCTTT: the switch fluorescence ratio worked out at 0.996.

Regarding GTTCCTAGCT, the switch fluorescence ratio amounted to 1.04.

As to GCAATGACGT, the switch fluorescence ratio was 1.06.

As for ATTTTCTGTG, the switch fluorescence ratio was determined as 0.995.

With GGCCCCGAAG, the switch fluorescence ratio came out at 1.34.

Take GTTTTAGGTG: the switch fluorescence ratio was 1.12.

For the sequence GGATTGTGA, the switch fluorescence ratio came to 1.02.

CTGTGCAGTG: the switch fluorescence ratio was found to be 1.03.

On to AGTACGTCTT, for which the switch fluorescence ratio was found to be 0.963.

For GGGCTGGTTG, the switch fluorescence ratio is 0.997.

As for AACGGCTTTC, the switch fluorescence ratio was found to be 1.05.

Regarding TGAGACCAGC, the switch fluorescence ratio was 1.06.

As for GCTGTATGGT, the switch fluorescence ratio was 0.98.

As to TTAGAACCAG, the switch fluorescence ratio is 1.04.

For the sequence AAGAGCGTTG, the switch fluorescence ratio stood at 1.03.

On to TTCCAGGTT, for which the switch fluorescence ratio amounted to 1.07.

As for CAAATGATCC, the switch fluorescence ratio was determined as 0.998.

Regarding ACCTCGGCTG, the switch fluorescence ratio stood at 1.13.

Take ACTCATGGAT: the switch fluorescence ratio was found to be 0.966.

CGCTATAATA: the switch fluorescence ratio amounted to 1.25.

Turning to CTCATGTATG, the switch fluorescence ratio was 0.981.

For the sequence GGATGCTAAC, the switch fluorescence ratio stood at 1.16.

Consider TTTATAAGCG, for which the switch fluorescence ratio was 1.02.

Regarding AGTGGCGCG, the switch fluorescence ratio came to 0.929.

As for CTTGCCGCGG, the switch fluorescence ratio turned out to be 1.

Turning to TCGGTCACAA, the switch fluorescence ratio was found to be 1.02.

With GCGCCGAAAG, the switch fluorescence ratio was 1.01.

TATACGCCAG: the switch fluorescence ratio is 0.994.

Regarding TGTCCAGCGG, the switch fluorescence ratio was 1.03.

In the case of TTGTTTCTT, the switch fluorescence ratio came out at 1.04.

For the sequence TCGTCTATT, the switch fluorescence ratio came to 1.04.

Turning to GAATGAGAGG, the switch fluorescence ratio is 0.978.

GTTTAAGCAT: the switch fluorescence ratio turned out to be 0.973.

As for GAGCGTGTGT, the switch fluorescence ratio is 1.03.

For the sequence CTTCTTGCCA, the switch fluorescence ratio was found to be 1.02.

GCCATCGTCT: the switch fluorescence ratio worked out at 1.01.

ATATCATTG: the switch fluorescence ratio was found to be 1.05.

With TACCGGTACT, the switch fluorescence ratio is 1.07.

Turning to TGTTGGGAAA, the switch fluorescence ratio was determined as 0.957.

Turning to TATTTTCATC, the switch fluorescence ratio was determined as 1.04.

Take GTCTAGATAC: the switch fluorescence ratio came out at 2.5.

Turning to TTGTTTACGT, the switch fluorescence ratio is 0.976.

As for ATACCTATTC, the switch fluorescence ratio was found to be 1.05.

With TATGCTGGA, the switch fluorescence ratio was found to be 1.08.

Take AAAGCCGGTC: the switch fluorescence ratio was determined as 1.2.

For the sequence ACACTGCAAC, the switch fluorescence ratio is 2.4.

Turning to CAGTCGCATG, the switch fluorescence ratio was 1.1.

For TTAAGGATGC, the switch fluorescence ratio came to 1.08.

Consider AGGGACTGTA, for which the switch fluorescence ratio was found to be 1.04.

Turning to AAATCATCC, the switch fluorescence ratio came out at 1.11.

For the sequence CCACAGATTT, the switch fluorescence ratio is 1.13.

Consider TGCTTCGGC, for which the switch fluorescence ratio is 0.959.

Turning to ACGAAGCATG, the switch fluorescence ratio amounted to 4.84.

For the sequence AAGATCTTTA, the switch fluorescence ratio amounted to 1.03.

Consider ATTGTGCTCC, for which the switch fluorescence ratio worked out at 1.03.

On to GGTGCTACTC, for which the switch fluorescence ratio amounted to 1.24.

For CCCGGGGACC, the switch fluorescence ratio is 1.04.

Consider CCACCTCAGT, for which the switch fluorescence ratio was determined as 1.23.
